Measured values as given in PubChem BioAssay AID902 (National Center for Advancing Translational Sciences (NCATS), 2007).
Among all 130,000 compounds or so, about 1,900 (1.5%) were called active. Inconclusive results, whose numbers are uncertain, are shown with a selection of clear calls. Calls come from the whole dose curve; as a rule, active = well fitted cell-killing curve with a large enough effect; inconclusive = small, poorly fitted or top-dose-only effect; inactive = no such curve, though single readings can be large or run the other way. Potencies beside an inconclusive call are fits to weak or partial responses and may not hold up.
% is set by controls: 0 for no effect and ±100 for the full control effect; potency is the fitted concentration of half-maximal effect; tags give direction and shape of the fitted curve.

Experiment: qHTS Screen for Compounds that Selectively Target Cancer Cells with p53 Mutations: Cytotoxicity of p53ts Cells at the Nonpermissive Temperature; note: nearly all actives have a fitted effect of over 55% in size
Conditions: H1299-p53A138V viability at 39C, ATP luminescence, 24 h; activity change, negative = cell killing: at 46.1 µM (top of the series)
For `CCc1ccc2oc(-c3cccc(NC(=O)c4cccnc4)c3)nc2c1`, the “activity change, negative = cell killing” value was inactive: -28.6%. With `CCOc1ccc(-c2cc3c(=O)n(CC(=O)NCc4ccccc4)ccn3n2)cc1` the Potency was inconclusive: 3.98 µM [cytotoxic, partial curve, poor fit]. In the case of `Cc1cc(NC(=O)c2cc(-c3ccc(F)cc3)on2)nn1Cc1ccc(Cl)cc1`, the Potency is reported as inconclusive: 1.26 µM [cytotoxic, partial curve]. For `O=C(Cn1c(=O)c2cccn2c2ccc(F)cc21)Nc1cccc(F)c1`, the Potency was inconclusive: 31.6 µM [cytotoxic, single point]. For `O=C(NCc1cccnc1)c1c[nH]c2cc3c(cc2c1=O)OCCO3`, the Potency was inconclusive: 12.6 µM [cytotoxic, partial curve]. For `COc1cc2c(cc1OC)-c1c(oc3cc(O)cc(O)c3c1=O)CO2`, the “activity change, negative = cell killing” value was inactive: -16.5%. For `COc1ccc(OC)c(CNC(=O)C2CCN(S(=O)(=O)c3ccc4[nH]c(=O)oc4c3)CC2)c1`, the Potency was inconclusive: 0.0158 µM [cytotoxic, full curve, poor fit]. In the case of `Cc1ccc(CNC(=O)c2c[nH]n3c(=O)c(Cc4ccc(F)cc4Cl)c(C)nc23)cc1`, the Potency is reported as inconclusive: 12.6 µM [cytotoxic, single point]. In the case of `Cc1c(C(=O)N2CCCCC2)sc(NC(=O)c2ccco2)c1C#N`, the “activity change, negative = cell killing” value is reported as inactive: -10.1%. In the case of `Cc1ccc(C(=O)c2oc3ccccc3c2NC(=O)C(C)Oc2ccccc2Cl)cc1` (configuration not stated), the “activity change, negative = cell killing” value is reported as inactive: 7.93%. In the case of `Oc1ccccc1-c1nnc(COc2ccccc2)o1`, the “activity change, negative = cell killing” value is reported as inactive: -22.5%. With `O=C(Nc1nc2c(s1)CCCC2)c1ccccc1F` the Potency was active: 10 µM. In the case of `CN1CCN(c2ncc3nc(-c4ccc(F)cc4)c(=O)n(Cc4cccs4)c3n2)CC1`, the Potency is reported as inconclusive: 7.94 µM [cytotoxic, partial curve]. For `COc1ccc(C(c2sc3ncnn3c2O)N2CC(C)OC(C)C2)cc1OC` (configuration not stated), the “activity change, negative = cell killing” value was inactive: -5.45%. In the case of `COC(=O)c1ccc(NC(=O)NC(C)c2c(-n3cccc3)sc(C)c2C)cc1` (configuration not stated), the Potency is reported as inconclusive: 7.94 µM [cytotoxic, partial curve]. For `COc1ccc(C(CC(=O)Nc2nccs2)n2cccc2)cc1` (configuration not stated), the Potency was inconclusive: 20 µM [cytotoxic, partial curve]. For `C/C(CC1CC(C)OC1=O)=N\NC(N)=S` (configuration not stated), the Potency was inconclusive: 6.31 µM [cytotoxic, full curve]. In the case of `CCc1ccc(S(=O)(=O)c2nnn3c2nc(N2CCC(C(N)=O)CC2)c2cc(Cl)ccc23)cc1`, the Potency is reported as inconclusive: 12.6 µM [cytotoxic, partial curve]. With `CCc1cccc(C)c1NC(=O)CN1C(=O)c2ccccc2Sc2ncccc21` the “activity change, negative = cell killing” value was inactive: -8.82%. With `COc1ccc2cc3c(N)c(C(=O)NCc4ccco4)sc3nc2c1` the “activity change, negative = cell killing” value was inactive: -19.1%. With `O=C(NCc1cccnc1)/C(=C\c1ccc(-c2ccc(Cl)c(Cl)c2)o1)S(=O)(=O)c1ccccc1` the Potency was inconclusive: 15.8 µM [cytotoxic, single point]. In the case of `CC(C)C(=O)Nc1ccc(NC(=O)c2ccco2)cn1`, the Potency is reported as inconclusive: 31.6 µM [cytotoxic, partial curve, poor fit]. With `Nc1nc2ccccc2n1CCOc1ccccc1Cl` the Potency was inconclusive: 31.6 µM [cytotoxic, single point]. In the case of `FC(F)(F)c1cccc(-c2nnn3c2nc(NC2CCCCC2)c2ccccc23)c1`, the Potency is reported as inconclusive: 31.6 µM [cytotoxic, single point]. With `COc1cccc2c(=O)n(CC(=O)NC3CCCC3)ccc12` the “activity change, negative = cell killing” value was inactive: 15.6%. With `CSc1cccc(NC(=O)Nc2ccccc2)c1` the “activity change, negative = cell killing” value was inactive: -23.9%. For `COc1ccccc1Nc1c2c(nc3ccc(NC(=O)c4cccc(OC)c4OC)cc13)CCCC2`, the Potency was inconclusive: 12.6 µM [cytotoxic, single point]. With `O=C(Nc1cccc(C(=O)N2CCN(c3ccccc3F)CC2)c1)c1nsc2ccccc12` the Potency was inconclusive: 25.1 µM [cytotoxic, partial curve]. In the case of `CCC1CCCCN1C(=O)CSc1n[nH]c(-c2ccccc2Cl)n1` (configuration not stated), the Potency is reported as inconclusive: 1 µM [cytotoxic, partial curve]. In the case of `COC(=O)c1ccc2c(=O)n(CCCCCC(=O)N3CCN(c4cc(Cl)ccc4C)CC3)c(=O)[nH]c2c1`, the Potency is reported as active: 3.98 µM. In the case of `Cc1cc(C)cc(-n2nnc(-c3nsc(NC(=O)c4ccccc4Cl)n3)c2C)c1`, the activity change, negative = cell killing is reported as inconclusive: -40.3% [cytotoxic]. For `C=Cc1ccc(Cn2c(=O)n(-c3ccc(C)cc3)c(=O)c3c2c2cc(OC)ccc2n3C)cc1`, the Potency was inconclusive: 6.31 µM [cytotoxic, partial curve, poor fit]. For `CC(C)CCNc1nc2c(S(=O)(=O)c3ccc(Br)cc3)nnn2c2ccsc12`, the Potency was inconclusive: 31.6 µM [cytotoxic, single point]. With `COc1ccc(-c2cn3c(C)c(C(=O)NCCN4CCOCC4)sc3n2)cc1` the “activity change, negative = cell killing” value was inactive: 12.9%. With `CCC1CCCCN1C(=O)Cn1c(=O)n(CCCCCC(=O)NCc2ccc(F)cc2)c(=O)c2sccc21` (configuration not stated) the activity change, negative = cell killing was inconclusive: -30.5% [cytotoxic]. With `CCN1CCN(Cc2ccc(NC(=O)Nc3ccccc3)cc2)CC1` the Potency was inconclusive: 10 µM [cytotoxic, partial curve]. For `O=C(NCc1ccc(Cl)cc1)c1ccc2c(c1)NC(=O)C(CS(=O)(=O)Cc1ccccc1Cl)N2` (configuration not stated), the Potency was inconclusive: 25.1 µM [cytotoxic, single point]. For `CCn1c(=O)c2cc(C(=O)NCCCN(C)Cc3ccccc3)sc2c2ccccc21`, the Potency was inconclusive: 31.6 µM [cytotoxic, single point]. With `COc1ccc(N2Cc3cccc(C(=O)Nc4ccc(C)c(C)c4)c3C2=O)cc1` the Potency was inconclusive: 0.631 µM [cytotoxic, full curve, poor fit]. With `CCOC(=O)C(C(C)=O)c1c(Br)c(O)c(O)c2c(C(=O)c3ccc(C)cc3)coc12` (configuration not stated) the Potency was inconclusive: 31.6 µM [cytotoxic, single point]. In the case of `Cc1ccc(NC(=O)CN2C(=O)C(C)(C)c3ccccc32)cc1`, the Potency is reported as inconclusive: 0.631 µM [cytotoxic, partial curve]. For `Cc1ccc2oc3c(c(=O)c2c1)C(c1cccc(O)c1)N(Cc1ccccc1Cl)C3=O` (configuration not stated), the Potency was inconclusive: 25.1 µM [cytotoxic, single point]. For `CCOC(=O)c1c(NC(=O)c2ccc(S(=O)(=O)N3CCCC(C)C3)cc2)sc2c1CCN(C(C)C)C2` (configuration not stated), the Potency was inconclusive: 0.0126 µM [cytotoxic, full curve, poor fit]. In the case of `CC(=O)Nc1cccc(NC(=O)Nc2ccc(C(C)=O)cc2)c1`, the Potency is reported as inconclusive: 12.6 µM [cytotoxic, partial curve]. For `CCOC(=O)c1cc(-c2ccccc2)n(-c2cccc(C(=O)N(CC)c3ccccc3)c2)c1C`, the “activity change, negative = cell killing” value was inactive: 10.5%. For `Cc1csc(NC(=O)CSc2nnc(-c3ccoc3C)o2)n1`, the Potency was inconclusive: 10 µM [cytotoxic, partial curve]. In the case of `O=C(Nc1c(C(=O)Nc2cccc(F)c2)oc2ccccc12)c1cc2ccccc2o1`, the Potency is reported as inconclusive: 3.16 µM [cytotoxic, partial curve]. In the case of `Fc1ccc(-c2nnc(-c3ccc(Cl)cc3)o2)cc1`, the Potency is reported as inconclusive: 10 µM [cytotoxic, single point]. With `CCOC(=O)Nc1ccc(C(=O)NCC2CCCO2)cc1` (configuration not stated) the “activity change, negative = cell killing” value was inactive: -10.9%. In the case of `Cc1ccc(-c2nc3ccc(Cl)cn3c2Nc2ccc3c(c2)OCCO3)s1`, the Potency is reported as inconclusive: 15.8 µM [cytotoxic, partial curve]. With `Cc1ccc(NC2=Nc3ccccc3CS2)cc1` the Potency was inconclusive: 15.8 µM [cytotoxic, partial curve]. In the case of `COCCNC(=O)C(c1cccs1)N(Cc1cccs1)C(=O)Cn1nnc2ccccc21` (configuration not stated), the “activity change, negative = cell killing” value is reported as inactive: 29.1%. With `O=C(CSc1ncc(CO)n1Cc1ccccc1)Nc1ccc(C(F)(F)F)cc1` the Potency was inconclusive: 10 µM [cytotoxic, partial curve]. In the case of `COc1cccc(C2c3c(-c4ccccc4O)n[nH]c3C(=O)N2CCc2ccc(OC)c(OC)c2)c1` (configuration not stated), the Potency is reported as inconclusive: 31.6 µM [cytotoxic, single point]. With `CCc1ccccc1Nc1cc(C(=O)NC2CCC(C)CC2)c2ccccc2n1` (configuration not stated) the Potency was inconclusive: 12.6 µM [cytotoxic, single point]. In the case of `Cc1cccc(-n2ccnc2SCC(=O)Nc2nc3ccccc3s2)c1`, the Potency is reported as inconclusive: 10 µM [cytotoxic, partial curve]. In the case of `Cc1ccc(-n2nnc3c(=O)n(Cc4cccc(C)c4)cnc32)cc1`, the “activity change, negative = cell killing” value is reported as inactive: 21.9%. In the case of `O=C(Nc1cc(Cl)cc(Cl)c1)c1cc(S(=O)(=O)N2CCc3ccccc3C2)ccc1F`, the Potency is reported as inconclusive: 0.005 µM [cytotoxic, full curve, poor fit]. In the case of `COc1ccc(C(=O)Nc2c(C(=O)c3ccccc3)oc3ccccc23)cc1`, the “activity change, negative = cell killing” value is reported as inactive: -20.5%. With `COc1ccc(C(=O)Nc2nnc(S(=O)(=O)N(CC(C)C)c3ccccc3)s2)cc1` the Potency was inconclusive: 0.0316 µM [cytotoxic, full curve, poor fit]. With `CCc1ccc2oc(-c3cc(N)cc(C)c3O)nc2c1` the Potency was inconclusive: 10 µM [cytotoxic, partial curve]. In the case of `Cc1nc2nc(-c3ccccc3)cn2nc1C`, the Potency is reported as inconclusive: 12.6 µM [cytotoxic, partial curve]. For `COc1cc(-c2nnn(CC(=O)NC3CCS(=O)(=O)C3)n2)ccc1OCc1ccccc1` (configuration not stated), the Potency was inconclusive: 12.6 µM [cytotoxic, single point]. In the case of `Cc1ccc(CC(=O)NCC(C)C)cc1`, the “activity change, negative = cell killing” value is reported as inactive: 9.03%. With `O=C(Nc1ccc(-c2nc3cccnc3s2)cc1)c1ccco1` the Potency was inconclusive: 7.94 µM [cytotoxic, partial curve]. In the case of `COc1ccccc1Nc1c2c(nc3ccc(NC(=O)/C=C/c4cc(OC)c(OC)c(OC)c4)cc13)CCCC2`, the Potency is reported as active: 15.8 µM. In the case of `Cc1nc(-c2ccc(S(=O)(=O)N(C)Cc3ccccc3)cc2)co1`, the Potency is reported as inconclusive: 0.0501 µM [cytotoxic, full curve, poor fit].
